Experimental data: paper PMC4336329 (PLoS ONE, 2015)
In all, about 310,000 compounds went through this assay and about 2,200 (0.71%) showed an effect of 50% or more. Effects have a minus sign here. Some of the results follow.

biological target: human ether-à-go-go-related gene (hERG) potassium channel (human, UniProt Q12809); assay: primary screen, population patch clamp on CHO cells stably expressing hERG
Sequence (Q12809 whole entry, looked up): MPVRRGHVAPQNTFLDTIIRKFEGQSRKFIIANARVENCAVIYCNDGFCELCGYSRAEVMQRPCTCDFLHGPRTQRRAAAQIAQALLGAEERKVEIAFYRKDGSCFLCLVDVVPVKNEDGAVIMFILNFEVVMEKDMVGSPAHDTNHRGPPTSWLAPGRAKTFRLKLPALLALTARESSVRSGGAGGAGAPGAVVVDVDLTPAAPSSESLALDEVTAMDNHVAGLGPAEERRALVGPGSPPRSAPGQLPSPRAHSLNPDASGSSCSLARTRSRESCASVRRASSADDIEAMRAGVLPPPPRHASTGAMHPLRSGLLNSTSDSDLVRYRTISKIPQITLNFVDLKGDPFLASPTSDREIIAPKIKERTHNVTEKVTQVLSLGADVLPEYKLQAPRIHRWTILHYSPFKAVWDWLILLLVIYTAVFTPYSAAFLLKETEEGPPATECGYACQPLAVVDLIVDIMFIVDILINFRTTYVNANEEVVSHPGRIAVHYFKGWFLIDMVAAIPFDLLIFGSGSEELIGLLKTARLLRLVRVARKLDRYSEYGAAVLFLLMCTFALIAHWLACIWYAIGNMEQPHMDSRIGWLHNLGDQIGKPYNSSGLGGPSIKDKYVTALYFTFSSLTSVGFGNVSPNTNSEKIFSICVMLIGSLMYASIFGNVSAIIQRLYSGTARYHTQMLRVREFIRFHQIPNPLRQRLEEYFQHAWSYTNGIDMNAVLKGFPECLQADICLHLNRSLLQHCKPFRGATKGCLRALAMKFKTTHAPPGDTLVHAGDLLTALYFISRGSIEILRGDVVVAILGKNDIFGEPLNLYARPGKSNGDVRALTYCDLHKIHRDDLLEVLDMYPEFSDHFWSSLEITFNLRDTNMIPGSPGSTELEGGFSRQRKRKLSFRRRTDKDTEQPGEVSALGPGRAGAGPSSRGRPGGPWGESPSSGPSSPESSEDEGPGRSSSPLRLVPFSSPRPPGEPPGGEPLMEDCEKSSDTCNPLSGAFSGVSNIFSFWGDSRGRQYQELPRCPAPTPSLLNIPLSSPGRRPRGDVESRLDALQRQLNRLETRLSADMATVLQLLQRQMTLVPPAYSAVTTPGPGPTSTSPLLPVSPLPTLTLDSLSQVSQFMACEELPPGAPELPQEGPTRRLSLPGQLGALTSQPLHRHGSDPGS

SMILES | hERG current change (%, negative = inhibition) at 1uM
C/C(=N\NC(=O)COc1ccccc1F)c1cc2ccccc2o1 | 7.4%
Cc1csc2nc(CSc3ccc(Cl)cc3)cn12 | 0.767%
COc1ccc(C(=O)N/N=C/C(C)c2ccccc2)cc1OC (stereo not drawn) | 1.75%
COc1cc(C)c(Br)cc1S(=O)(=O)N1CCCC1 | -12.7%
Cc1cc(C(=O)OCC(=O)c2cccc([N+](=O)[O-])c2)c2cccc(C)c2n1 | 5.16%
O=C(NC1CCCc2ccccc21)C1CCN(S(=O)(=O)N2CCCCCC2)CC1 (stereo not drawn) | 0.951%
CCCCn1c(N)c(N(CCOC)C(=O)C2CC(=O)N(Cc3ccco3)C2)c(=O)[nH]c1=O (stereo not drawn) | 13.2%
CC(=O)Nc1ccc(S(=O)(=O)N2CCC(NC(C)=O)(c3cccc(F)c3)CC2)cc1 | 1.86%
Cc1ccc(NC(=O)CSc2nnc(-c3cccs3)o2)cc1S(=O)(=O)N(C)C | 2.22%
CCOc1cc(C(=O)Nc2ccc(S(=O)(=O)NC3=NCCCCC3)cc2)cc(OCC)c1OCC | 3.88%
Cc1ccc(C)c(-n2c(CNC(=O)c3ccco3)nnc2SCC(=O)N2CCc3ccccc32)c1 | 18.2%
COc1ccccc1CN1CCCC(CN(CCN(C)C)C(=O)c2ccc(C)cc2)C1 (stereo not drawn) | -0.236%
CCOC(=O)c1cnc2sccn2c1=O | 10.5%
Cc1nc(SCC(=O)Nc2ccccn2)n[nH]1 | 16.3%
Cc1oc2c(O)c(O)ccc2c(=O)c1-c1ccccc1 | 6.32%
CC1(C)CC2CC(C)(CN2C(=O)COC(=O)CNC(=O)c2ccc(Cl)c(Cl)c2)C1 (stereo not drawn) | 2.31%
O=C(c1c[nH]c(C(=O)C(Cl)(Cl)Cl)c1)c1ccccc1Cl | 10.8%
COc1cccc(NC(=O)CSc2ncnc3c2oc2ccccc23)c1 | 10.8%
CN1CCN(c2nc3nonc3nc2N2CCN(C)CC2)CC1 | 4.65%

SMILES | hERG current change (%, negative = inhibition) at 1uM
C=CCn1cccc(C(=O)Nc2ccc(OC)c(OC)c2)c1=O | 10.8%
O=C(NNc1nc(-c2ccccc2)c2cc(Br)ccc2n1)c1ccc(S(=O)(=O)N2CCCCC2)cc1 | 10.5%
O=C(O)c1ccc(N2C(=O)c3[nH]nc(-c4ccccc4)c3C2c2ccccc2)cc1 (stereo not drawn) | 13.6%
CC(C)(C)NC(=O)NCCc1ccccc1 | 10.7%
Cc1nnc(SCc2cccs2)[nH]c1=O | -7.03%
CCOC(=O)c1ccc(CNC(=O)Cn2nnc(-c3cccc(C)c3)n2)o1 | -9.37%
O=C(CN1CCC(C(O)(c2ccccc2)c2ccccc2)CC1)Nc1ccccc1 | -5.06%
Cc1cccc(-c2cc3nc(C)cc(NCCCn4ccnc4)n3n2)c1 | -19%
CCOC(=O)Cc1cc(C)[nH]c1C(=O)OCC | 8.13%
CCOC(=O)CNC(=O)CSc1ncnc2c1cnn2-c1ccc(C)cc1 | 8.26%
O=C(/C=C/c1ccc2c(c1)OCO2)c1cccnc1 | 18.8%
CC(=O)OC1(c2ccccc2)CC(C(C)(C)C)CN(C(C)(C)C)C1.Cl (stereo not drawn) | 14.3%
CC(=O)Nc1c(O)c2ccccc2[nH]c1=O | 4.66%
O=C(CN(Cc1ccco1)C(=O)CNS(=O)(=O)c1ccccc1)NCc1ccccc1 | -5.97%
COc1ccc(NC(=O)CS(=O)CC(=O)N2CCN(C3CCCC3)CC2)cc1 (stereo not drawn) | 21.4%
CCc1ccccc1NC(=S)N(CCOC)C(C)c1ccco1 (stereo not drawn) | 5.16%
Cc1ccc(NC(=O)Cn2cnc3cc([N+](=O)[O-])ccc3c2=O)cc1 | 5.59%
CC(C)n1c(=O)n(CC(=O)NCC2CCCO2)c(=O)c2c3c(sc21)COC(C)(C)C3 (stereo not drawn) | 10.8%
CCOC(=O)C1CCCN(C(=O)CCc2nnc(-c3ccc(C(C)=O)s3)o2)C1 (stereo not drawn) | 17.8%

SMILES | hERG current change (%, negative = inhibition) at 1uM
COCCNC(=S)N/N=C(\C)c1ccc(OC(F)F)cc1 | 5.64%
CCOc1ccc(-n2nc(C(=O)N3CCN(CC)CC3)c3ccccc3c2=O)cc1 | -1.35%
CON(c1nc(N(C)C)nc(N(C)C)n1)S(=O)(=O)c1ccccc1Cl | 15.5%
CCOC(=O)C1CCN(C(=O)CNS(=O)(=O)c2cccs2)CC1 | 7.9%
COc1ccc(OCC(=O)NNC(=O)C2CCN(c3ncnc4sc(C)c(C)c34)CC2)cc1 | 5.1%
Cc1cccc(Nc2c3c(nc4ccccc24)CCC3)c1.Cl | -30.1%
O=C(Cn1nnc(-c2ccccc2)n1)NC(=O)NC1CCCC1 | 14.2%
Cc1cc(C(=O)COC(=O)c2ccccc2O)c(C)n1Cc1cccs1 | 0.119%
Cc1ccc(O)c(NC(=O)c2cccc(NC(=O)c3ccco3)c2)c1 | -11.7%
Cc1cccc(C)c1NC(=O)CN(C)C(=O)C1CCCCC1 | 7.36%
CCOc1ccc2nc(Cl)c(/C=C/C(=O)c3ccco3)cc2c1 | 17.1%
COc1ccc(C)cc1NC(=O)CN1C(=O)CSc2ccc(S(=O)(=O)N3CCCC3)cc21 | 21.9%
Nc1nc(SCC(=O)NCCCN2CCOCC2)nc2sc3c(c12)CCC3 | 3.95%
CN(CCO)c1c2c(nc3cc(-c4cccc(F)c4)nn13)CCCC2 | -0.969%
O=C(NC1CCCC1)c1c[nH]c2ccc(F)cc2c1=O | 12.7%
C=CCn1cc(C(=O)NCc2ccco2)c(=O)c2cc(S(=O)(=O)N3CCCCCC3)ccc21 | 8.93%
O=S(=O)(c1cc(Cl)c(Cl)cc1Cl)N1CCN2CCCC2C1 (stereo not drawn) | 19.6%
Cc1ccc(-n2cccc2/C=C2\C(=N)N3N=C(C(C)C)SC3=NC2=O)cc1 | 14.6%
CC(C)(C)c1cc(C(F)(F)F)c(C#N)c(=O)[nH]1 | 10.8%
